# Experimental data taken from the supplement of paper PMC12217912.
# The other results are listed elsewhere or left out. Sequences were assembled here from the parent chain. Inactive controls read about 0.05.
# B1: TEV protease; numbered along this chain (parent)
# chain: MGESLFKGPRDYNPISSSICHLTNESDGHTTSLYGIGFGPFIITNKHLFRRNNGTLVVQSLHGVFKVKDTTTLQQHLVDGRDMIIIRMPKDFPPFPQKLKFREPQREERICLVTTNFQTKSMSSMVSDTSCTFPSGDGIFWKHWIQTKDGQCGSPLVSTRDGFIVGIHSASNFTNTNNYFTSVPKNFMELLTNQEAQQWVSGWRLNADSVLWGGHKVFMVKPEEPFQPVKEATQL
# Variants of: B1
# Assay: raw area under fraction-flipped curve 0-4 h after induction (AUC4h, not background-subtracted), DNA-recorder readout of cleavage of the substrate (dimensionless); higher = more cleavage of the substrate by the protease variant
# Details: temperature: 34 °C; time window: 0-4 h after rhamnose induction
# Protocol: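 In vivo DNA recorder in E. coli TOP10(DE3) ΔrhaA at 34 °C. Each TEVp single-site mutant (parent TEVp 0) is paired with a single-site variant of the 7-mer TEVs (canonical ENLYFQ|S). The substrate sits between flexible linkers in a Bxb1-sfGFP-TEVs-SsrA fusion, so cleavage stabilises Bxb1 and speeds flipping of a recombination array, read by NGS. The value is the raw area under the fraction-flipped curve over 0-4 h after rhamnose induction (AUC4h), with ≥20 reads per time point. It is not background-subtracted; inactive controls average about 0.047.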
# 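Further: Bxb1 expression induced with 0.2% (w/v) L-rhamnose at OD600 near 0.5, cultures sampled hourly, flipped fraction per protease–substrate barcode pair counted by paired-end Illumina sequencing.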
Variant,area with substrate ENLAFQS,area with substrate ENLDFQS,area with substrate ENLGFQS,area with substrate ENLHFQS,area with substrate ENLKFQS,area with substrate ENLPFQS,area with substrate ENLQFQS,area with substrate ENLVFQS,area with substrate ENLEFQS,area with substrate ENLFFQS,area with substrate ENLNFQS,area with substrate ENLIFQS,area with substrate ENLLFQS,area with substrate ENLRFQS,area with substrate ENLSFQS,area with substrate ENLWFQS,area with substrate ENLCFQS,area with substrate ENLMFQS
MGESLFKGPRDYNPISSSICHLTNESDGHTTSLYGIGFGPFIITNKHLFRRNNGTLVVQSLHGVFKVKDTTTLQQHLRDGRDMIIIRMPKDFPPFPQKLKFREPQREERICLVTTNFQTKSMSSMVSDTSCTFPSGDGIFWKHWIQTKDGQCGSPLVSTRDGFIVGIHSASNFTNTNNYFTSVPKNFMELLTNQEAQQWVSGWRLNADSVLWGGHKVFMVKPEEPFQPVKEATQL [V78R],0.0576,0.0636,0.0616,0.0574,0.0634,0.0554,0.0566,0.061,–,–,–,–,–,–,–,–,–,–
MGESLFKGPRDYNPISSSICHLTNESDGHTTSLYGIGFGPFIITNKHLFRRNNGTLVVQSLHGVFKVKDTTTLQQHLVDGWDMIIIRMPKDFPPFPQKLKFREPQREERICLVTTNFQTKSMSSMVSDTSCTFPSGDGIFWKHWIQTKDGQCGSPLVSTRDGFIVGIHSASNFTNTNNYFTSVPKNFMELLTNQEAQQWVSGWRLNADSVLWGGHKVFMVKPEEPFQPVKEATQL [R81W],0.0519,0.0668,–,0.0681,0.0542,0.0628,0.0513,0.063,0.077,0.0645,0.0753,–,–,–,–,–,–,–
MGESLFKGPRDYNPISSSICHLTNESDGHTTSLYGIGFGPFIITNKHLFRRNNGTLVVQSLHGVFKVKDTTTLQQHLVDGYDMIIIRMPKDFPPFPQKLKFREPQREERICLVTTNFQTKSMSSMVSDTSCTFPSGDGIFWKHWIQTKDGQCGSPLVSTRDGFIVGIHSASNFTNTNNYFTSVPKNFMELLTNQEAQQWVSGWRLNADSVLWGGHKVFMVKPEEPFQPVKEATQL [R81Y],0.053,0.0668,0.0674,0.0621,0.0642,0.0487,0.0758,–,0.0664,0.0671,0.0481,0.0816,0.0662,0.116,0.0632,0.0584,–,–
MGESLFKGPRDYNPISSSICHLTNESDGHTTSLYGIGFGPFIITNKHLFRRNNGTLVVQSLHGVFKVKDTTTLQQHLVDGRDMDIIRMPKDFPPFPQKLKFREPQREERICLVTTNFQTKSMSSMVSDTSCTFPSGDGIFWKHWIQTKDGQCGSPLVSTRDGFIVGIHSASNFTNTNNYFTSVPKNFMELLTNQEAQQWVSGWRLNADSVLWGGHKVFMVKPEEPFQPVKEATQL [I84D],0.0335,0.0515,–,0.0477,0.0447,0.0641,–,–,0.0474,0.0518,0.0503,0.0459,0.0477,0.0587,0.0446,0.0515,0.0571,0.039
MGESLFKGPRDYNPISSSICHLTNESDGHTTSLYGIGFGPFIITNKHLFRRNNGTLVVQSLHGVFKVKDTTTLQQHLVDGRDMRIIRMPKDFPPFPQKLKFREPQREERICLVTTNFQTKSMSSMVSDTSCTFPSGDGIFWKHWIQTKDGQCGSPLVSTRDGFIVGIHSASNFTNTNNYFTSVPKNFMELLTNQEAQQWVSGWRLNADSVLWGGHKVFMVKPEEPFQPVKEATQL [I84R],0.0556,0.0636,–,0.0594,0.0757,–,0.0554,0.0845,0.069,0.0691,0.0598,0.0566,–,–,0.0641,–,0.067,–
MGESLFKGPRDYNPISSSICHLTNESDGHTTSLYGIGFGPFIITNKHLFRRNNGTLVVQSLHGVFKVKDTTTLQQHLVDGRDMIILRMPKDFPPFPQKLKFREPQREERICLVTTNFQTKSMSSMVSDTSCTFPSGDGIFWKHWIQTKDGQCGSPLVSTRDGFIVGIHSASNFTNTNNYFTSVPKNFMELLTNQEAQQWVSGWRLNADSVLWGGHKVFMVKPEEPFQPVKEATQL [I86L],0.069,0.0693,–,0.07,0.0794,–,–,0.0865,0.0762,–,0.0704,–,–,–,0.057,–,–,–
MGESLFKGPRDYNPISSSICHLTNESDGHTTSLYGIGFGPFIITNKHLFRRNNGTLVVQSLHGVFKVKDTTTLQQHLVDGRDMIISRMPKDFPPFPQKLKFREPQREERICLVTTNFQTKSMSSMVSDTSCTFPSGDGIFWKHWIQTKDGQCGSPLVSTRDGFIVGIHSASNFTNTNNYFTSVPKNFMELLTNQEAQQWVSGWRLNADSVLWGGHKVFMVKPEEPFQPVKEATQL [I86S],0.0492,0.0479,–,0.0517,0.0565,0.0507,0.0475,0.0553,–,0.0694,0.0557,0.0495,0.0466,–,0.0425,–,0.0472,–
MGESLFKGPRDYNPISSSICHLTNESDGHTTSLYGIGFGPFIITNKHLFRRNNGTLVVQSLHGVFKVKDTTTLQQHLVDGRDMIITRMPKDFPPFPQKLKFREPQREERICLVTTNFQTKSMSSMVSDTSCTFPSGDGIFWKHWIQTKDGQCGSPLVSTRDGFIVGIHSASNFTNTNNYFTSVPKNFMELLTNQEAQQWVSGWRLNADSVLWGGHKVFMVKPEEPFQPVKEATQL [I86T],0.064,–,0.0764,0.0628,0.0678,0.0491,0.0626,–,–,0.0738,0.0485,0.0655,0.059,–,0.0526,0.0557,–,–
MGESLFKGPRDYNPISSSICHLTNESDGHTTSLYGIGFGPFIITNKHLFRRNNGTLVVQSLHGVFKVKDTTTLQQHLVDGRDMIIIFMPKDFPPFPQKLKFREPQREERICLVTTNFQTKSMSSMVSDTSCTFPSGDGIFWKHWIQTKDGQCGSPLVSTRDGFIVGIHSASNFTNTNNYFTSVPKNFMELLTNQEAQQWVSGWRLNADSVLWGGHKVFMVKPEEPFQPVKEATQL [R87F],0.0609,0.0593,–,0.0304,0.0741,0.0609,0.0737,0.0813,0.0543,0.0907,0.0804,–,0.0481,0.0654,0.0763,–,–,–
